Out of some 360,000 compounds screened, about 740 (0.21%) were called active. This list was built around the results that the source calls inconclusive (neither active nor inactive); the mix of calls is not that of the screen. Calls come from the whole dose curve; as a rule, active = well fitted inhibition curve with a large enough effect; inconclusive = small, poorly fitted or top-dose-only effect; inactive = no such curve, though single readings can be large or run the other way. Potencies of inconclusive entries are left out as doubtful fits.
tested on: Plasmodium falciparum AMA1 (3D7) - RON2 peptide interaction; assay: qHTS for Inhibitors of AMA1-RON; Towards Development of Antimalarial Drug Lead: Primary Screen; settings: AlphaScreen AMA1-biotinylated RON2 peptide binding; activity change, negative = inhibition: at 58.2 µM (top of the series) unless noted; note: nearly all actives have a fitted effect of over 45% in size;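 for activity change, negative = inhibition: 0% = vehicle wells and -100% = peptide control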
Outline: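 AMA1 (3D7) with his tag at 25 nM final met compounds first, then biotinylated RON2 peptide at 25 nM; detection used donor plus acceptor beads, 10 µg/mL apiece, read by AlphaScreen after 30 min at room temperature.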
Potency is the fitted concentration of half-maximal effect; tags give direction and shape of the fitted curve.

| SMILES | activity change, negative = inhibition | Potency |
| --- | --- | --- |
| Cc1ccccc1CC1(CO)CCCN(Cc2c(C)nn(C)c2Cl)C1 (stereo unspecified) | inconclusive: -19% [inhibitor] |  |
| C[c-]1[c-](C)[c-](C)[c-](C)[c-]1C.[Fe].c1cc2nccc(N3CCCC3)[c-]2c1 (stereo unspecified) |  | inconclusive [inhibitor, partial curve] |
| Cc1cc(S(=O)(=O)Nc2ccc(C(=O)NCC(c3ccco3)N3CCCCC3)cc2)ccc1F (stereo unspecified) | inactive: -16.3% |  |
| COc1ccc(-n2nnnc2C(CCSC)N2CCC(n3c(=O)[nH]c4ccccc43)CC2)cc1 (stereo unspecified) |  | inconclusive [inhibitor, single point] |
| Cc1cccc(C(=O)Nc2cc(S(=O)(=O)N3CCOCC3)ccc2N2CCCCC2)c1 | inactive: 5.69% [at 11.6 µM] |  |
| OCCN(Cc1ccccc1)Cc1ccc(C(F)(F)F)cc1 |  | inconclusive [inhibitor, single point] |
| O=C(c1cccc(Cl)c1)C1CCCN(C(=O)c2ccc3c(c2)OCO3)C1 (stereo unspecified) | inactive: -7.49% |  |
| Cc1cc(C(=O)COC(=O)CNC(=O)c2ccccc2)c(C)n1CC1CCCO1 (stereo unspecified) | inactive: 6.36% |  |
| CN1CCCN(C(=O)CC2(CC(=O)O)CCCC2)CC1 | inactive: 2.38% |  |
| CN1CCOC(=O)/C1=N/Nc1cc(Cl)ccc1Cl |  | inconclusive [inhibitor, single point] |
| Cc1ccc(CNC(=O)Cn2ccc3ccccc3c2=O)o1 |  | inconclusive [inhibitor, full curve] |
| COc1ccc(N(CC(=O)NCc2ccccc2)C(=O)CCC(=O)Nc2cc(C)ccn2)c(OC)c1 | inactive: -8.9% |  |
| CCOC(=O)CSCc1cn2cc(Cl)ccc2n1 | inactive: 4.68% |  |
| Cc1ccc2nc3n(c(=O)c2c1)CCCCC3 | inactive: 0% |  |
| Cc1cc2oc(C(=O)N(Cc3ccc(N(C)C)cc3)CC3CCCO3)c(C)c2cc1C (stereo unspecified) |  | active: 14.1 µM |
| Cc1ccc(NC(=O)Cc2nc(CSc3nnc(-c4ccc5c(c4)OCO5)o3)cs2)cc1 | inactive: 5.18% |  |
| CC(C)OC(=O)/C(=C/c1cccnc1)NC(=O)c1ccccc1 |  | inconclusive [inhibitor, partial curve, poor fit] |
| c1ccc(-c2sc3ccccc3c2-c2ccc(OCCN3CCOCC3)cc2)cc1 |  | inconclusive [inhibitor, partial curve] |
| CCOc1cc(/C=N/Nc2ccc(S(=O)(=O)Nc3ccccc3C(=O)O)cc2[N+](=O)[O-])cc(Cl)c1O |  | inconclusive [inhibitor, single point] |
| CCN(CCCn1c(SCC#N)nc2ccccc2c1=O)c1ccccc1 |  | inconclusive [inhibitor, single point] |
| CCCc1ccc(OCc2nc(-c3ccc(NC(=O)c4cccs4)cc3)no2)cc1 | inactive: -2.84% |  |

From PubChem BioAssay AID720542 (National Center for Advancing Translational Sciences (NCATS), 2013)
